96 molecules from PubChem BioAssay AID485344 (National Center for Advancing Translational Sciences (NCATS), 2010) can be followed below.

The whole screen tested about 340,000 compounds, of which about 6,900 (2%) were called active. Cut-off read from the data, not from the text of the source: active = inhibition above about 30%; inactive = below that, where a call was filed. Only a part is listed here, and it is no random draw. Where no call is shown, the source filed none. Some structures have more than one record in an assay (separate samples or runs), and their calls can disagree.

Sequence of UniProt P14416 (P14416 whole entry, looked up): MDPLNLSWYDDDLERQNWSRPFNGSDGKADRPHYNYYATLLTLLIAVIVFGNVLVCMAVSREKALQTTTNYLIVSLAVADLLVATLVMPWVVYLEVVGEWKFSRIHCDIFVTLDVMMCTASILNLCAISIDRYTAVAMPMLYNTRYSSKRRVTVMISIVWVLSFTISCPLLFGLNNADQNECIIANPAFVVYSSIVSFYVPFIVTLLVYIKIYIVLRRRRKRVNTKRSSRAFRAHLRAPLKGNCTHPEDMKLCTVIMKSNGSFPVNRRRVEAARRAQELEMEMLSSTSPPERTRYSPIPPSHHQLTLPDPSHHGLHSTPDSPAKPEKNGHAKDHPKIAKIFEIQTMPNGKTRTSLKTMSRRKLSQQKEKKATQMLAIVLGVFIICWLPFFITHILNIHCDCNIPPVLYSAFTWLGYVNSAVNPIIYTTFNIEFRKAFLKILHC

This assay has as its target D(2) dopamine receptor (Homo sapiens) (UniProt P14416). The assay can be described thus: HTS Assay for Allosteric Antagonists of the Human D2 Dopamine Receptor: Primary Screen for Antagonists. Note: 0% is about no effect. The note with it: HEK293 TREx D2 cells, calcium flux, dopamine EC80; at 10 µM; stronger effect = higher value. The method, boiled down:
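Read-out: kinetic calcium fluorescence (1 cycle/s) in inducible HEK293 T-REx D2 cells after an EC80 dopamine addition that followed 180 s compound preincubation. Loss of the dopamine response indicates antagonism.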
(A change in cytosolic calcium serves as a functional read-out for many receptors and channels.)
As to `O=C(CSc1c2c(nc3cc(Cl)ccc13)CCCC2)NCc1ccccc1Cl`, the inhibition was -15.6%.

`COc1ccc(C2N3CC4(C)CN2CC(c2ccccc2)(C3)C4=O)cc1OC` (stereo unspecified): the inhibition was -9.58%.

Take `COc1ccc(C2CC(=O)c3cc(-c4nc(-c5cccc([N+](=O)[O-])c5)cs4)c(=O)n(-c4ccc(OC)cc4)c3C2)cc1` (stereo unspecified): the inhibition was found to be 0.536%.

In the case of `CSc1ncc(C(=O)N2CCN(c3cccc(C(F)(F)F)c3)CC2)c(C)n1`, the inhibition is -6.24%.

Consider `COc1ccccc1OCC(=O)Nc1c(C(=O)c2ccc(F)cc2)oc2ccccc12`, for which the inhibition is 4.74%.

Regarding `COc1cccc(OC(=O)CSc2nnc(-c3ccc4c(c3)OCO4)o2)c1`, the inhibition came out at 8.04%.

For the molecule `CC(C)CCN(C(=O)Nc1ccc(Cl)c(Cl)c1)C(C)c1cccs1` (stereo unspecified), the inhibition was -3.48%.

`CCOC(=O)c1c(S(=O)(=O)NCC(=O)NCc2ccccc2)c(C)n(C)c1C`: the inhibition came out at 8.28%.

As for `Cc1cccc(-c2nc3c4ccccc4nc(NCc4ccc(F)cc4)n3n2)c1`, the inhibition was -0.0563%.

`CCOC(=O)c1ccc(OC(=O)c2cn(-c3cccc(OC)c3)c(=O)c3ccccc23)cc1`: the inhibition is -15%.

`C/C(=N\NC(=O)CSCc1ccc([N+](=O)[O-])cc1)c1ccccc1O`: the inhibition is active: 77%.

`CCc1ccc2c(c1)NC(c1ccc(OC)cc1)=NC(c1ccncc1)=N2`: the inhibition was -18.4%.

With `COc1cc(/C=C/c2nc(C#N)c(N3CCC(C)CC3)o2)cc(OC)c1OC`, the inhibition is -4.1%.

Turning to `CCC1CCCCN1C(=O)c1sc(-n2nc(C)c(Cc3ccccc3)c2C)nc1C` (stereo unspecified), the inhibition is -10.2%.

For `Cc1ccc(Cl)cc1NC(=O)CN1C(=O)C(C)(C)c2cc(S(=O)(=O)N3CCCCC3)ccc21`, the inhibition came out at 12.2%.

On to `CCSc1ncc(Cl)c(C(=O)Nc2sc3c(c2C(=O)NC)CCCC3)n1`, for which the inhibition is -8.03%.

For `CC(Oc1ccccc1F)C(=O)Nc1ccc(-c2nc3ccccc3s2)cc1` (stereo unspecified), the inhibition is -8.25%.

Consider `CCc1cccc(NC(=O)CN(C)S(=O)(=O)c2cccc3cccnc23)c1`, for which the inhibition was determined as 1.18%.

`CC1CCc2c(sc(NC(=O)c3cc4nc(-c5ccc(Cl)cc5)cc(C(F)(F)F)n4n3)c2C#N)C1` (stereo unspecified): the inhibition is -4.62%.

In the case of `CC(=O)c1ccc(N2CCN(C(=O)CCS(=O)(=O)c3ccc4c(c3)oc(=O)n4C)CC2)cc1`, the inhibition is -4.42%.

`Nc1c(-c2nc(-c3ccc(F)cc3)cs2)c2ccccn2c1C(=O)c1ccc2c(c1)OCO2`: the inhibition is -6.45%.

As to `COC(=O)CN1C(=O)CSc2ccc(S(=O)(=O)Nc3cccc(Cl)c3C)cc21`, the inhibition worked out at 1.12%.

On to `CCOc1ccc(NS(=O)(=O)c2ccc3[nH]cc(C(=O)NCC4CCCO4)c(=O)c3c2)cc1` (stereo unspecified), for which the inhibition is -15%.

For `Cc1cc(=O)n(CC(=O)N2CCN(c3ccc(F)cc3)CC2)c2c1c(C)nn2C`, the inhibition was determined as 26.2%.

For the molecule `COc1ccc(NCc2cc3ccc(OC)cc3n(CC(=O)Nc3cc(Cl)ccc3C)c2=O)cc1`, the inhibition was -16.1%.

Take `COc1ccccc1NC(=O)C1CCC(CNS(=O)(=O)c2ccc3c(c2)CC(C)N3C(C)=O)CC1` (stereo unspecified): the inhibition was found to be 2.27%.

`Cc1cc(-n2c(C)nc3ccccc3c2=O)ccc1NC(=O)c1ccc([N+](=O)[O-])cc1`: the inhibition was -27.2%.

In the case of `Cc1onc(-c2c(Cl)cccc2Cl)c1CO/N=C(\C#N)c1c(Cl)cccc1Cl`, the inhibition was active: 30.1%.

For the molecule `O=C(Nc1ccc(S(=O)(=O)N2CCCCCC2)cc1)c1cc(=O)c2ccccc2o1`, the inhibition was found to be 4.18%.

Take `Clc1ccc(SCCCN2CCCCC2)cc1`: the inhibition is active: 38.4%.

For `CCOC(=O)c1cc2c(c(CSc3nc4ccccc4c(=O)n3Cc3ccco3)c1)OCOC2`, the inhibition is active: 30.7%.

`O=C(Cn1c(=O)c2cccn2c2cccnc21)NCc1ccccc1F`: the inhibition is -7.71%.

With `CN1CCN(C(CNC(=O)C(=O)Nc2cccc(Cl)c2)c2ccc3c(c2)OCO3)CC1` (stereo unspecified), the inhibition was -15.2%.

For the molecule `Cc1ccc(Cl)c(OCCCCN(C)Cc2ccccc2)c1`, the inhibition is active: 45.5%.

With `O=S(=O)(Nc1ccc(-c2ccc(N3CCCC3)nn2)cc1)c1cc(F)ccc1F`, the inhibition amounted to 2.02%.

Turning to `CC1=C(C(=O)Nc2ccc(C)cc2C)C(c2ccccc2F)n2nc(SCC(=O)c3ccc(C)cc3)nc2N1` (stereo unspecified), the inhibition was 18.8%.

`CCc1ccc(NC(=O)c2cnc3sc(N4CCCC4)nn3c2=O)cc1`: the inhibition is -5.2%.

Regarding `Cc1cc2nc(-c3ccc(OCc4ccccc4)cc3)cc(C(F)(F)F)n2n1`, the inhibition came to 4.85%.

As for `Cc1ccc2[nH]c(=O)c3cc(C(=O)NCCc4ccc(Cl)cc4)sc3c2c1`, the inhibition came to 1.43%.

For `O=C(NCc1ccc(Cl)cc1)C1CCCN(C(=O)c2ccc(Cl)cc2)C1` (stereo unspecified), the inhibition is active: 38.4%.

As to `CC1CCN(CCCCOc2ccccc2F)CC1`, the inhibition is active: 81.5%.

Take `O=C(c1ccc2c(c1)N(Cc1cccc(Cl)c1)C(=O)c1ccccc1S2)N1CCOCC1`: the inhibition was -8.7%.

As for `c1ccc(OCCn2c(COc3ccccc3)nc3ccccc32)cc1`, the inhibition is -0.818%.

Consider `O=C1c2oc3ccccc3c(=O)c2C(c2cccc(Cl)c2)N1c1ccccn1` (stereo unspecified), for which the inhibition was 3.34%.

Turning to `Cc1ccc(NC(=O)Cn2c(=O)n(Cc3ccc4c(c3)OCO4)c(=O)c3ccc(C(=O)NC4CCCCC4)cc32)c(C)c1`, the inhibition was -9.44%.

Consider `CCn1c2ccccc2c2cc(CN3CCN(Cc4ccccc4C)CC3)ccc21`, for which the inhibition is -2.03%.

As to `COc1ccccc1C(=O)Nc1ccc(OCc2cc(=O)n3cc(C)sc3n2)cc1`, the inhibition is 11.9%.

As to `COc1ccc(C)cc1NC(=O)c1ccc2c(c1)nnn2C1CCCC1`, the inhibition is -5.72%.

Regarding `CCc1nn(CCCC(=O)NC(C)c2ccccc2)c(=O)c2cc3occc3n12` (stereo unspecified), the inhibition was -1.26%.

In the case of `Cn1c(SCc2ccccc2F)nc2c([nH]c3ccccc32)c1=O`, the inhibition is -12.6%.

With `CCCCNC(=O)C(CC)Sc1nc2ccccc2c(=O)n1CCc1ccc(OC)c(OC)c1` (stereo unspecified), the inhibition is -10.9%.

Consider `Cc1ccc(Cn2cc(CCC(=O)NCc3ccc(OC(C)C)cc3)c3ccccc32)cc1`, for which the inhibition was found to be 4.46%.

For `COc1cccc(C2CC(c3cccs3)=NN2C(=O)CSC2=NCCS2)c1OC` (stereo unspecified), the inhibition is active: 31.4%.

Turning to `C/C=C/C=C\C(=O)Nc1cccc(C2=NOC3(C2)C[C@H](C(N)=O)N(C(=O)CC#N)C3)c1` (stereo partly specified), the inhibition is active: 33.2%.

`CCc1ccc(S(=O)(=O)c2nnn3c2nc(NCCNC(C)=O)c2cc(Cl)ccc23)cc1`: the inhibition is -2.65%.

Take `CC(C)(C)NC(=O)c1oc2ccccc2c1NC(=O)c1ccc(F)cc1`: the inhibition is -8.44%.

Regarding `COc1ccc(CCN2C(=O)CN(C3CCC(C)CC3)C(=O)C2c2ccc(OC(C)C)c(OC)c2)cc1OC` (stereo unspecified), the inhibition is 1.15%.

`O=C1CCCN1Cc1ccccc1`: the inhibition was active: 30.4%.

On to `Cc1ccccc1C(=O)c1cccn1CC(=O)NCc1cccc(Cl)c1`, for which the inhibition was -2.49%.

With `O=C(Cn1c(=O)n(-c2ccc(Cl)cc2)c(=O)c2c3c(sc21)CCC3)c1ccccc1`, the inhibition is 1.52%.

Turning to `CCOC(=O)C1(CC2CC2)CCN(Cc2ccc(C(=O)OC)cc2)CC1`, the inhibition was active: 71.8%.

For `CCOC(=O)c1c(NC(=O)CSc2cn(CCNC(=O)c3ccccc3F)c3ccccc23)sc2c1CCCC2`, the inhibition was -11.8%.

For `COCCCNC(=O)c1ccc2c(c1)NC(=O)C(C(C)C)N2` (stereo unspecified), the inhibition was 0.344%.

Regarding `CCOC(=O)c1ccc(NC(=O)c2nn(C)c3c2COc2ccccc2-3)cc1`, the inhibition came out at 24.1%.

`CC(C)c1ccc(OCc2cc(=O)n3c(-c4ccccc4)csc3n2)cc1`: the inhibition turned out to be 20.6%.

On to `COc1cc(-c2cc(OC)c3c(C)oc(C)c3c(=O)c2)ccc1OC(=O)c1cccc(Cl)c1`, for which the inhibition is -17.7%.

Take `COc1ccc(NC(=O)CCCN2C(=O)COc3ccc(C)cc32)cc1OC`: the inhibition is 5.06%.

Turning to `CCOc1ccc(CNC(=O)CCCn2c(=O)c3cccn3c3ccc(F)cc32)cc1`, the inhibition turned out to be 2.39%.

Consider `CC(=O)N1CCc2c(sc3c2c(=O)n(Cc2ccccc2)c(=O)n3CC(=O)Nc2ccc(C)c(F)c2)C1`, for which the inhibition is -12.9%.

On to `COc1ccc(CN2C(=O)C(NC(=O)c3ccccc3OC)(C(F)(F)F)N=C2c2ccccc2)cc1` (stereo unspecified), for which the inhibition was -10.2%.

Consider `COc1ccc(CCNC(=O)CCC(=O)c2cccs2)cc1OC`, for which the inhibition was active: 43.9%.

Turning to `CCc1ccc(S(=O)(=O)c2nnn(-c3cccc(C)c3)c2N)cc1`, the inhibition amounted to 12.3%.

With `Cc1cc(C)n(CCOc2nonc2N)n1`, the inhibition was active: 34.1%.

In the case of `CCc1ccc(NC(=O)CCn2cnc3ccccc3c2=O)cc1`, the inhibition worked out at 22%.

As for `CCOC(=O)c1c(-c2ccccc2)oc2ccc(NS(=O)(=O)c3ccc(C(C)C)cc3)cc12`, the inhibition was -5.87%.

Regarding `Cc1cccc(OCC(=O)Nc2ccc3nc(Nc4cccc(Cl)c4)cc(C)c3c2)c1`, the inhibition was -20.6%.

As for `CCCCCn1c(=N)n(CC(O)COc2ccccc2OC)c2ccccc21` (stereo unspecified), the inhibition was active: 32.4%.

As to `CCOc1ccccc1CNC(=O)CN1C(=O)CCc2cc(S(=O)(=O)N3CCCCC3)ccc21`, the inhibition is -1.34%.

Take `COc1ccccc1NC(=O)c1c(NC(=O)c2ccccc2Cl)sc2c1CCC2`: the inhibition is -15.8%.

For the molecule `COCCNC(=O)CSc1nc(-c2ccc(C)cc2)nc2c1c(=O)n(C)c(=O)n2C`, the inhibition amounted to 7.61%.

As for `COC(=O)C1=C(C)NC(=O)C1(NC(=O)c1ccccc1C)C(F)(F)F` (stereo unspecified), the inhibition was 15.2%.

Turning to `COc1ccc(CCC(=O)NCc2ccc3c(c2)CCN3C(=O)c2ccc(C)cc2)cc1`, the inhibition was 15.5%.

For `COc1cccc(-c2nc(SCC(=O)N3CCc4ccccc43)c3c(=O)n(C)c(=O)n(C)c3n2)c1`, the inhibition stood at 8.53%.

For `COc1ccc(NC(=O)Cn2ccn(-c3ccccc3)c(=O)c2=O)cc1`, the inhibition was found to be 15.8%.

For the molecule `Cc1ccc(-c2nc3cccnc3s2)cc1NC(=O)Cc1ccccc1`, the inhibition came out at 12%.

In the case of `Cc1ccc(-n2nc(C)c3c(C(=O)Nc4ccc(Br)c(C)c4)cc(C)nc32)cc1`, the inhibition was 6.5%.

With `COc1ccccc1Nc1ncnc2c1nc1n2CCCC1`, the inhibition was determined as 11.2%.

Turning to `COc1ccccc1NC(=O)CSc1nnc2c3ccccc3n(C)c2n1`, the inhibition is -3.73%.

`CC(C)COc1ccccc1C1CC(=O)Nc2cc3c(cc21)OCO3` (stereo unspecified): the inhibition turned out to be 13.5%.

For the molecule `COc1cccc(CNC(=O)Cn2ccc3cc(S(=O)(=O)N4CCC(C)CC4)ccc32)c1`, the inhibition was -11.7%.

As for `CCCCOc1ccc(C2=NC(c3ccccc3)=Nc3ccc(OC)cc3N2)cc1`, the inhibition was -7.07%.

Take `Cn1c(=O)c2c(-c3ccccc3Br)n(CCc3ccccc3)cc2n(C)c1=O`: the inhibition came out at 4.81%.

For `CCc1ccc(NC(=O)CSc2nnc(-c3cc4occc4n3C)n2-c2ccccc2C)cc1`, the inhibition was 12.2%.

In the case of `Clc1ccccc1Cc1cn2cc(-c3ccccc3)nc2s1`, the inhibition was found to be 2.62%.

Take `C=CCc1c(C)nc2nc(SCC(=O)Nc3ccc(OCC)cc3)nn2c1C`: the inhibition was 5.92%.

For the molecule `Cc1cc(C)cc(NC(=O)C2(c3cccs3)CCOCC2)c1`, the inhibition turned out to be 7.51%.

As usually defined, the inhibition is the drop in the measured response relative to a control, in per cent.
